Experimental data published in the supplement of paper PMC8728848.
The list shows a part of the results.

How the values were obtained:
Experiment in all cases: glycan array binding signal (z-score within array); higher = stronger binding
Conditions in all cases: glycan notation: IUPAC condensed, linker removed
[1] = molecular target: Neu5Ac(a2-3)Gal(b1-4)GlcNAc(b1-6)GalNAc
Summary of the method: (§1)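 From the Consortium for Functional Glycomics database, 3228 arrays were curated, keeping only those whose protein sequence was available. Binding is given as a within-array Z-score averaged across arrays sharing a protein sequence and across linkers. Negative Z-scores can be read as non-binding.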

[2] = molecular target: Neu5Ac(a2-3)Gal(b1-4)GlcNAc(b1-6)[Gal(b1-3)]GalNAc
Summary of the method: as §1

[3] = molecular target: Neu5Ac(a2-3)Gal(b1-4)GlcNAc(b1-6)[Neu5Ac(a2-3)Gal(b1-3)]GalNAc
Summary of the method: as §1

[4] = molecular target: Neu5Ac(a2-3)Gal(b1-4)GlcNAc6S
Summary of the method: as §1

[5] = molecular target: Neu5Ac(a2-3)Gal(b1-4)[Fuc(a1-3)]GlcNAc
Summary of the method: as §1

[6] = molecular target: Neu5Ac(a2-3)Gal(b1-4)[Fuc(a1-3)]GlcNAc(b1-2)Man
Summary of the method: as §1

[7] = molecular target: Neu5Ac(a2-3)Gal(b1-4)[Fuc(a1-3)]GlcNAc(b1-3)Gal
Summary of the method: as §1

[8] = molecular target: Neu5Ac(a2-3)Gal(b1-4)[Fuc(a1-3)]GlcNAc(b1-3)Gal(b1-4)GlcNAc
Summary of the method: as §1

[9] = molecular target: Neu5Ac(a2-3)Gal(b1-4)[Fuc(a1-3)]GlcNAc(b1-3)Gal(b1-4)[Fuc(a1-3)]GlcNAc(b1-3)Gal(b1-4)[Fuc(a1-3)]GlcNAc
Summary of the method: as §1

[10] = molecular target: Neu5Ac(a2-3)Gal(b1-4)[Fuc(a1-3)]GlcNAc(b1-3)GalNAc
Summary of the method: as §1

[11] = molecular target: Neu5Ac(a2-3)Gal(b1-4)[Fuc(a1-3)]GlcNAc(b1-6)[Gal(b1-3)]GalNAc
Summary of the method: as §1

[12] = molecular target: Neu5Ac(a2-3)Gal(b1-4)[Fuc(a1-3)]GlcNAc(b1-6)[Neu5Ac(a2-3)Gal(b1-3)]GalNAc
Summary of the method: as §1

[13] = molecular target: Neu5Ac(a2-3)Gal(b1-4)[Fuc(a1-3)]GlcNAc6S
Summary of the method: as §1

[14] = molecular target: Neu5Ac(a2-3)Gal6S(b1-4)GlcNAc
Summary of the method: as §1

[15] = molecular target: Neu5Ac(a2-3)Gal6S(b1-4)[Fuc(a1-3)]GlcNAc
Summary of the method: as §1

[16] = molecular target: Neu5Ac(a2-3)GalNAc
Summary of the method: as §1

[17] = molecular target: Neu5Ac(a2-3)GalNAc(b1-4)GlcNAc
Summary of the method: as §1

[18] = molecular target: Neu5Ac(a2-3)[GalNAc(b1-4)]Gal(b1-4)Glc
Summary of the method: as §1

[19] = molecular target: Neu5Ac(a2-3)[GalNAc(b1-4)]Gal(b1-4)GlcNAc
Summary of the method: as §1

[20] = molecular target: Neu5Ac(a2-3)[GalNAc(b1-4)]Gal(b1-4)GlcNAc(b1-3)GalNAc
Summary of the method: as §1

[21] = molecular target: Neu5Ac(a2-3)[Neu5Ac(a2-6)]GalNAc
Summary of the method: as §1

[22] = molecular target: Neu5Ac(a2-6)Gal
Summary of the method: as §1

[23] = molecular target: Neu5Ac(a2-6)Gal(b1-3)GlcNAc(b1-3)[Gal(b1-4)GlcNAc(b1-6)]Gal(b1-4)Glc
Summary of the method: as §1

[24] = molecular target: Neu5Ac(a2-6)Gal(b1-4)Glc
Summary of the method: as §1

[25] = molecular target: Neu5Ac(a2-6)Gal(b1-4)GlcNAc
Summary of the method: as §1

[26] = molecular target: Neu5Ac(a2-6)Gal(b1-4)GlcNAc(b1-2)Man
Summary of the method: as §1

[27] = molecular target: Neu5Ac(a2-6)Gal(b1-4)GlcNAc(b1-2)Man(a1-3)Man(b1-4)GlcNAc(b1-4)GlcNAc
Summary of the method: as §1

[28] = molecular target: Neu5Ac(a2-6)Gal(b1-4)GlcNAc(b1-2)Man(a1-3)[Gal(b1-4)GlcNAc(b1-2)Man(a1-6)]Man(b1-4)GlcNAc(b1-4)GlcNAc
Summary of the method: as §1

[29] = molecular target: Neu5Ac(a2-6)Gal(b1-4)GlcNAc(b1-2)Man(a1-3)[GlcNAc(b1-4)][Neu5Ac(a2-6)Gal(b1-4)GlcNAc(b1-2)Man(a1-6)]Man(b1-4)GlcNAc(b1-4)GlcNAc
Summary of the method: as §1

[30] = molecular target: Neu5Ac(a2-6)Gal(b1-4)GlcNAc(b1-2)Man(a1-3)[Man(a1-6)]Man(b1-4)GlcNAc(b1-4)GlcNAc
Summary of the method: as §1

[31] = molecular target: Neu5Ac(a2-6)Gal(b1-4)GlcNAc(b1-2)Man(a1-3)[Neu5Ac(a2-3)Gal(b1-4)GlcNAc(b1-2)Man(a1-6)]Man(b1-4)GlcNAc(b1-4)GlcNAc
Summary of the method: as §1

[32] = molecular target: Neu5Ac(a2-6)Gal(b1-4)GlcNAc(b1-2)Man(a1-3)[Neu5Ac(a2-6)Gal(b1-4)GlcNAc(b1-2)Man(a1-6)]Man(b1-4)GlcNAc(b1-4)GlcNAc
Summary of the method: as §1

[33] = molecular target: Neu5Ac(a2-6)Gal(b1-4)GlcNAc(b1-2)Man(a1-3)[Neu5Ac(a2-6)Gal(b1-4)GlcNAc(b1-2)Man(a1-6)]Man(b1-4)GlcNAc(b1-4)[Fuc(a1-6)]GlcNAc
Summary of the method: as §1

[34] = molecular target: Neu5Ac(a2-6)Gal(b1-4)GlcNAc(b1-2)Man(a1-6)Man(b1-4)GlcNAc(b1-4)GlcNAc
Summary of the method: as §1

[35] = molecular target: Neu5Ac(a2-6)Gal(b1-4)GlcNAc(b1-2)Man(a1-6)[Gal(b1-4)GlcNAc(b1-2)Man(a1-3)]Man(b1-4)GlcNAc(b1-4)GlcNAc
Summary of the method: as §1

[36] = molecular target: Neu5Ac(a2-6)Gal(b1-4)GlcNAc(b1-2)Man(a1-6)[GlcNAc(b1-2)Man(a1-3)]Man(b1-4)GlcNAc(b1-4)GlcNAc
Summary of the method: as §1

[37] = molecular target: Neu5Ac(a2-6)Gal(b1-4)GlcNAc(b1-2)Man(a1-6)[Man(a1-3)]Man(b1-4)GlcNAc(b1-4)GlcNAc
Summary of the method: as §1

[38] = molecular target: Neu5Ac(a2-6)Gal(b1-4)GlcNAc(b1-2)[Neu5Ac(a2-6)Gal(b1-4)GlcNAc(b1-4)]Man(a1-3)[GlcNAc(b1-4)][Neu5Ac(a2-6)Gal(b1-4)GlcNAc(b1-2)[Neu5Ac(a2-6)Gal(b1-4)GlcNAc(b1-6)]Man(a1-6)]Man(b1-4)GlcNAc(b1-4)GlcNAc
Summary of the method: as §1

[39] = molecular target: Neu5Ac(a2-6)Gal(b1-4)GlcNAc(b1-2)[Neu5Ac(a2-6)Gal(b1-4)GlcNAc(b1-4)]Man(a1-3)[GlcNAc(b1-4)][Neu5Ac(a2-6)Gal(b1-4)GlcNAc(b1-4)Man(a1-6)]Man(b1-4)GlcNAc(b1-4)GlcNAc
Summary of the method: as §1

[40] = molecular target: Neu5Ac(a2-6)Gal(b1-4)GlcNAc(b1-2)[Neu5Ac(a2-6)Gal(b1-4)GlcNAc(b1-6)]Man(a1-6)[Neu5Ac(a2-6)Gal(b1-4)GlcNAc(b1-2)Man(a1-3)][GlcNAc(b1-4)]Man(b1-4)GlcNAc(b1-4)GlcNAc
Summary of the method: as §1

[41] = molecular target: Neu5Ac(a2-6)Gal(b1-4)GlcNAc(b1-3)Gal(b1-3)GlcNAc
Summary of the method: as §1

[42] = molecular target: Neu5Ac(a2-6)Gal(b1-4)GlcNAc(b1-3)Gal(b1-4)GlcNAc
Summary of the method: as §1

[43] = molecular target: Neu5Ac(a2-6)Gal(b1-4)GlcNAc(b1-3)Gal(b1-4)GlcNAc(b1-2)Man(a1-3)[Neu5Ac(a2-6)Gal(b1-4)GlcNAc(b1-3)Gal(b1-4)GlcNAc(b1-2)Man(a1-6)]GalNAc
Summary of the method: as §1

[44] = molecular target: Neu5Ac(a2-6)Gal(b1-4)GlcNAc(b1-3)Gal(b1-4)GlcNAc(b1-3)Gal(b1-4)GlcNAc
Summary of the method: as §1

[45] = molecular target: Neu5Ac(a2-6)Gal(b1-4)GlcNAc(b1-3)Gal(b1-4)GlcNAc(b1-3)Gal(b1-4)GlcNAc(b1-2)Man(a1-3)[Neu5Ac(a2-6)Gal(b1-4)GlcNAc(b1-3)Gal(b1-4)GlcNAc(b1-3)Gal(b1-4)GlcNAc(b1-2)Man(a1-6)]GalNAc
Summary of the method: as §1

B1: Mermaid3 (Stilbonema majum) (protein)
chain: MGSSHHHHHHSSGLVPRGSHMAASGWLRSPQGTVVKLYRRSLSWSKADEFCKDVDGRLVVDRTADMHLFLIKNVLKEKKSRVWVGLRRTASHSRTWIWSDGTRQNEGDLDANLWLRDEPNDAAGEEECALFMYSPWEKAWGLNDYLCRGGCRNYQFICEKWIR
- glycan array binding signal (z-score) [1]: -0.776
- glycan array binding signal (z-score) [2]: 4.77
- glycan array binding signal (z-score) [3]: -0.132
- glycan array binding signal (z-score) [4]: -0.701
- glycan array binding signal (z-score) [5]: -0.77
- glycan array binding signal (z-score) [6]: -0.553
- glycan array binding signal (z-score) [7]: -0.782
- glycan array binding signal (z-score) [8]: -0.249
- glycan array binding signal (z-score) [9]: -0.718
- glycan array binding signal (z-score) [10]: -0.224
- glycan array binding signal (z-score) [11]: -0.742
- glycan array binding signal (z-score) [12]: -0.153
- glycan array binding signal (z-score) [13]: -0.098
- glycan array binding signal (z-score) [14]: -0.465
- glycan array binding signal (z-score) [15]: -0.532
- glycan array binding signal (z-score) [16]: 2.33
- glycan array binding signal (z-score) [17]: 0.426
- glycan array binding signal (z-score) [18]: -0.811
- glycan array binding signal (z-score) [19]: -0.598
- glycan array binding signal (z-score) [20]: -0.61
- glycan array binding signal (z-score) [21]: 4.44
- glycan array binding signal (z-score) [22]: -0.644
- glycan array binding signal (z-score) [23]: -0.731
- glycan array binding signal (z-score) [24]: -0.474
- glycan array binding signal (z-score) [25]: -0.565
- glycan array binding signal (z-score) [26]: 0.55
- glycan array binding signal (z-score) [27]: -0.256
- glycan array binding signal (z-score) [28]: 1.92
- glycan array binding signal (z-score) [29]: -0.644
- glycan array binding signal (z-score) [30]: 1.05
- glycan array binding signal (z-score) [31]: -0.731
- glycan array binding signal (z-score) [32]: -0.268
- glycan array binding signal (z-score) [33]: -0.531
- glycan array binding signal (z-score) [34]: -0.74
- glycan array binding signal (z-score) [35]: -0.747
- glycan array binding signal (z-score) [36]: -0.484
- glycan array binding signal (z-score) [37]: -0.751
- glycan array binding signal (z-score) [38]: -0.816
- glycan array binding signal (z-score) [39]: -0.448
- glycan array binding signal (z-score) [40]: -0.692
- glycan array binding signal (z-score) [41]: -0.009
- glycan array binding signal (z-score) [42]: -0.443
- glycan array binding signal (z-score) [43]: 0.719
- glycan array binding signal (z-score) [44]: -0.539
- glycan array binding signal (z-score) [45]: -0.062
